Data from the supplement of paper PMC3334620.
The full ranking holds about 33,000 sequences; the median of “E-score (-0.5 to 0.5)” is about -0.017, and the highest 2% start at about 0.3. The list shows a part of the results.

The sequences below were run against T1, Sut1 (UniProt P53032) (assay: PBM E-score (8-mer binding enrichment) (E-score (-0.5 to 0.5)); higher = stronger / more preferred TF binding; most listed sequences are background and not binding sites). Details: protein concentration: 200 nM; construct: GST-full length.
T1 sequence: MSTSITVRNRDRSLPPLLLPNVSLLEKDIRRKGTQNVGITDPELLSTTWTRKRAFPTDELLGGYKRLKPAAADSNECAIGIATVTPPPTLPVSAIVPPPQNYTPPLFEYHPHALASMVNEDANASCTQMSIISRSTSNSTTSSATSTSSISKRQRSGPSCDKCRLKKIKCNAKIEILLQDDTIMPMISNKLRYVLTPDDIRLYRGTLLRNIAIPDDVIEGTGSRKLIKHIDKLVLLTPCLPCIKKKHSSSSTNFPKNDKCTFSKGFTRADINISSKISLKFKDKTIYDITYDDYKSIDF
In short: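 Yeast transcription factors, full-length or as DNA-binding domains, were expressed with a GST tag using PURExpress in vitro transcription/translation. At about 100-200 nM they were applied to universal all-10-mer Agilent arrays, double-stranded by primer extension on fresh or once-stripped slides. Fluorescent anti-GST detected bound protein, and masliner normalised the scans. E-scores for ungapped eight-base words, pooled with reverse complements, came from the Universal PBM Analysis Suite.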

Sequence | PBM E-score
CTCCAGGA | -0.17
GCCGATAA | 0.00363
CGGGCACA | -0.171
AACATGTT | -0.0414
CACGGAGA | 0.355
TAAAATCA | 0.19
CGACCGCC | -0.257
AAGTTTCG | 0.174
AAGTGATA | 0.0865
TAATTGGA | 0.172
ACCTCAAT | 0.0135
CGATCAGA | -0.128
CGAATATA | 0.231
AGTACTTG | 0.0358
TTCAGAAA | 0.157
CAAGCCTC | -0.243
CCAAACCC | -0.0968
ATGTAATG | 0.23
AACAGGCC | -0.0938
CGGGGCGC | -0.134
ACGGCGGG | -0.181
GGAGCAAA | 0.123
ATAGGATA | 0.134
ATGCGCAG | -0.309
GGGTCAAA | -0.116

Sequence | PBM E-score
AGTCCCTA | -0.204
GTTTCCAA | 0.0451
CTAACAAC | 0.179
ACGTATAG | 0.0316
GACTAAAA | 0.227
AACTTACC | 0.0569
GCTCCCAA | -0.0979
AGCAGTTG | -0.0164
AAACGTGA | 0.0732
GCTCGCCA | -0.0188
GCCGCAGA | -0.0852
CATTTCAG | 0.0719
ACTGGTAA | 0.177
GGCCACAC | 0.0644
TCGTTGCA | -0.0958
CACAGGCG | -0.0616
AAGCCAAT | 0.11
TAACAAAA | 0.287
ACATTGTA | 0.17
GTCCGCCA | 0.0605
TTGCTAAA | 0.026
AATGCTTG | -0.238
GCAGATGC | -0.29
ACGTGGCT | -0.241
GGAAACAC | 0.113

Sequence | PBM E-score
AGAGTTGC | -0.076
GCAAGGCA | -0.215
CGGGCGTC | -0.0799
CTCGATTA | 0.0353
ATATGGCC | -0.117
GAAAACTA | 0.154
AGCTAAAT | 0.0415
CGGAGAGC | 0.109
CAAGGGTA | -0.228
ATTGCCTC | 0.0893
CGATTGTA | 0.152
AACACACG | 0.0232
AACGTTGA | 0.0486
CATACACC | -0.041
TATGTTCA | 0.124
AGGCTGCC | -0.124
TGCACCAA | -0.248
AATCCAAC | 0.0651
GCGAATGA | 0.103
ACGTTTCT | -0.129
CTCTCCAC | -0.154
AGGTGGTA | 0.0328
ACGACCCT | -0.197
CACCTCTG | -0.194
CGCGATCA | -0.123

Sequence | PBM E-score
CCTATTAC | 0.116
CTGTGTCA | -0.131
AGATGCCC | -0.15
AAGCAAAG | 0.0776
GCAGTAGA | -0.121
CGCTTATA | 0.0405
CGACGAAC | -0.0348
ACTTTCTG | 0.154
CGTCTTTC | 0.105
AGACTCCT | -0.142
CGCCGGCC | -0.0583
ACGCTTCG | 0.0504
TCACGAAA | 0.094
ATCTAGGC | -0.242
CACTCCAC | -0.0759
TGCCTCAA | -0.0365
AGACTCCC | -0.319
CAACCTGC | -0.138
ACTACCGC | 0.159
ACCGCGGC | 0.154
CCCTTCGG | -0.0951
AAGGCTCG | -0.154
CCGTGGCC | -0.243
CAGGACCA | -0.0443
ATCCATGA | -0.103

Sequence | PBM E-score
CTGAAAAG | 0.0451
ATTGCCAC | -0.0449
AGCGATTA | 0.0691
GAGCGTAC | -0.18
GAACGTTC | -0.093
AGCCGAAG | -0.121
CTGAGCAA | -0.211
CCTTGCAC | -0.0952
GAGTGAAA | 0.136
GACGTCTC | -0.194
ATCGTGCC | -0.0957
ATCTAGGG | -0.097
TCCAACCA | -0.0894
AGGCTCCC | -0.0884
CAGATCTC | -0.0481
ATTTAGGC | 0.137
ACCAAAAA | 0.29
AGCACACC | -0.0874
AACCAAAC | -0.02
ACCCCGGT | 0.191
ATCCTAGG | -0.178
CCTACAGA | -0.145
AATGGGGT | -0.0202
CTGGAGCC | -0.204
ATTTGGGC | -0.154

Sequence | PBM E-score
GCCGAGGC | -0.133
GGTTAAAC | 0.226
CGTAGTTC | -0.0748
GCAAACCA | 0.0901
CTTAAGGC | -0.157
ATCGCTTC | -0.00337
AGCGAGAT | -0.0514
CGAGCACG | -0.112
CTATGCCA | -0.269
GCTAAACA | -0.0541
CTGCAGGC | -0.316
CAACCACG | 0.0166
GGTTATAA | 0.0773
GCCTCAAA | -0.162
AACCAAGG | -0.0306
AAAGGCGT | -0.0455
CGAGGATA | -0.16
AAGCCTAT | -0.00924
GAAGCGAC | -0.0313
ATCGTGGA | -0.152
CTAGCGGC | -0.102
CAGGCAGA | -0.19
GTAGCTAA | 0.0175
AGAGGGTG | -0.223
AACTGGTC | 0.0336

Sequence | PBM E-score
AGTAGGCC | -0.115
GCCGCGTA | -0.0906
CATGCCTC | 0.0616
AGCCTTCG | -0.203
CATGCTCA | -0.0391
CCATAGGG | -0.147
CTAAGTGC | -0.215
CGTCATTC | 0.173
TGCAAGCA | -0.132
AGTCGTCG | -0.145
GTCTGCGA | -0.15
AGATGATC | 0.02
ATGCGCAA | -0.213
ATTATCCC | -0.0033
ACCAGCTA | -0.0983
ACTGCCCA | -0.175
CGTGAAAG | -0.122
GAGGACTC | -0.231
CCGTTTGC | 0.111
AACTCCTA | 0.147
AGATATTG | 0.159
GTACCTGA | -0.0946
